Experimental data published in paper PMC12136788.
The other results are listed elsewhere or left out.

T1: UNK ZnF1-3 (human, UniProt Q9C0B0 31-174)
T1 sequence: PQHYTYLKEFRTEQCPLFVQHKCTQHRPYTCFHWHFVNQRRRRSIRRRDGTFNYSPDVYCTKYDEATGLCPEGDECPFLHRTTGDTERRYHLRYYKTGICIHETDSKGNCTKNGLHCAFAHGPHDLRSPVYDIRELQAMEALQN

B1: chr1:58468927:58468928:-_ENSMUSG00000026034_ENSMUST00000148330|mus_mus|mus_mus_mus_hu_False|28_78 (ssRNA)
RNA: GGGAGUUCUACAGUCCGACGAUCAAUUACUGAAAAAGAUGUUCAUUACCUUAGCUAGGCCAUGUAUGAACCAAAUUACCCAAACAAAAUAAACAUGGCAAUAUAAAAAGCUAUACAAUUUACAAAGCUGUACAAAAUAACUUACAACAGAGGAUUGAGCAUCA
B2: chr4:148551591:148551592:-_ENSMUSG00000063077_ENSMUST00000060537|mus_hu|mus_mus_mus_hu_False|78_78 (ssRNA)
RNA: GGGAGUUCUACAGUCCGACGAUCACCUGACAAAAUUAAAUAUCCCUGUAAAUUAGACAAGAAGCAGCAGGCAACAAAGUCUUUGCUUUGGAAUAUGUGCCAGGAAAAGUCAUCUUGUUUUUAGAUCUCAAGAGACAGUUCACACAACAGAGGAUUGAGCAUCA
B3: chr1:135503150:135503151:-_ENSMUSG00000090553_ENSMUST00000166915|mus_mus|FALSE|FALSE (ssRNA)
RNA: GGGAGUUCUACAGUCCGACGAUCUUCUGCAUCAUCUAAUACGAGGUUCAUGUACUCAUCAAAGCCAAUAAUACAACCUUCUAUCCGCAUAUUCACUUGUUCAUACAGCCACACCUGAAUUCGAGAUCUAUUUUGCAAGUAUCUCAACAGAGGAUUGAGCAUCA
B4: chr1:118462952:118462953:-_ENSG00000196505_ENST00000369442|hu_hu|FALSE|FALSE (ssRNA)
RNA: GGGAGUUCUACAGUCCGACGAUCGGCAUGAGUCACCCCAGCUUGGUAGUGUAUCCACAUCCACAAACUGGGAAGGUGCACCUAAGGGAUCCAUGGAAUGGGAACUUUGAUUUGUCUUUUCCCAAAAUCCUCAGCAAUUCAAUACAACAGAGGAUUGAGCAUCA
B5: 29207450_29207570_675_CDS_ENSG00000120875_ENST00000240100|human|control|control (ssRNA)
RNA: GGGAGUUCUACAGUCCGACGAUCGGCGCGCGGGCUGCGCUCGUCGUAGACGAUGACCGCCGAGUAGAGGCCGGAGCGCAAGCGGGCGCGUACCUCCUCCUCGGCGGGCAGGAUCUGCUCCAGGCUCACGGAGCCCUUAGCCCGCAACAGAGGAUUGAGCAUCA
B6: chr17:13104604:13104605:-_ENSMUSG00000057388_ENSMUST00000079121|mus_mus|FALSE|FALSE (ssRNA)
RNA: GGGAGUUCUACAGUCCGACGAUCAUAGAUUCUUCGAGGCUCCCGAAGCAUCACGCCACUUUCUGUCAUGGCAUUUUGUAAACGUUUUAUCGAGUCUGAGGACGCCUCCCACGGGGUGGGCUGGUAGACCAUGAAGUUGAUUCCCAACAGAGGAUUGAGCAUCA
B7: chr16:3748964:3748965:+_ENSMUSG00000022529_ENSMUST00000023176|mus_mus|motif|central (ssRNA)
RNA: GGGAGUUCUACAGUCCGACGAUCUUCACCACACUCUACAUCCAUACACAGCUUUUCUGCUGCAUGUAUUCUCUGGUGCCGGAUUAGGUUUGAGUUAUUAGAAAAGUUCUUGCCACACAAGGCACACAAAUGGAGUUUCUUGGGCAACAGAGGAUUGAGCAUCA
B8: chr19:42880530:42880531:+_ENSG00000105429_ENST00000334370|hu_mus|FALSE|FALSE (ssRNA)
RNA: GGGAGUUCUACAGUCCGACGAUCGCUAGGAAAGGCUCAGAGCGGCGGAAGGCAGGAGGAGGGAGCCCAGCUGGCUUCCAUGCAGGUGCUGGGCCUGCAGGGUCUGGAGGGAAGCAGACAGUGACCUUGGCAAAGGGGCGGCUGCAACAGAGGAUUGAGCAUCA
B9: 43810863_43810983_1618_3pUTR_ENSMUSG00000040018_ENSMUST00000045562|mouse|control|control (ssRNA)
RNA: GGGAGUUCUACAGUCCGACGAUCUCGAGUAGCUCCACAGGGGCACGUGUUCCUGAAUCUGUCACUGUCACCAGAAGCCUGACUAGUGGGCAGGACAUAGAAACCAAGAUCUAAGAAGUCAGCCCGCCUCUUAUGAAGCAGCAACAACAGAGGAUUGAGCAUCA
B10: chr7:116544294:116544295:+_ENSG00000198898_ENST00000458284|hu_mus|FALSE|FALSE (ssRNA)
RNA: GGGAGUUCUACAGUCCGACGAUCUGCUUCGUAGGGCCUUGGAUCAGUUGCUUCCUUUCUUAAAUGAUCAAAUUUGAAACAGAUUCUGUUUUUUGGAUCCAAAAAUUUUCCAUUUCCCAAGUCUCCAUGUUCUGUUAUCAAAACCAACAGAGGAUUGAGCAUCA
B11: 71553991_71554111_1996_CDS_ENSMUSG00000053470_ENSMUST00000065509|mouse|control|control (ssRNA)
RNA: GGGAGUUCUACAGUCCGACGAUCAAUAUUGGCCAGGAUAUAUUUUGCUGUGUCCAAAUCAGUCCCCACAACAUUUUUGGUCAAAGGCAGCCACAAGCCAAUCGCUUCACUGUCAUACUUGUUUGGUGUUAAGAAGCCUUCUACCAACAGAGGAUUGAGCAUCA
B12: chr17:65740002:65740003:+_ENSG00000130935_ENST00000581375|hu_hu|hu_hu_hu_mus_False|8_88 (ssRNA)
RNA: GGGAGUUCUACAGUCCGACGAUCAACAAAUCUUUCUUCCCUGGACGCAAGAGUUCAUUCAUAUUAAAAAAAAUAUAUAUCCAUCAAGUUAGGUGUGGUGGCCACACCUUUACUCCCAGCACUUUGGGAAUAUAAUCUCUGAGUCAACAGAGGAUUGAGCAUCA
B13: 115002338_115004872_336_CDS_ENSG00000130177_ENST00000356221|human|control|control (ssRNA)
RNA: GGGAGUUCUACAGUCCGACGAUCUUCCAUGUCAAGAACAUCAAGGGCCUGCUGGUGCUCUUUUGCAGCAUAAUGGCACCUAGCUGCAAGGUAACGACAUGCUUCAUACAAUUUGUCCAGUUUUCGUGACCGAAGUGCAUGGGCCAACAGAGGAUUGAGCAUCA
B14: chr16:94664741:94664742:+_ENSMUSG00000040785_ENSMUST00000117648|mus_hu|mus_mus_mus_hu_False|8_88 (ssRNA)
RNA: GGGAGUUCUACAGUCCGACGAUCUGGUACUGAUCUUGGUAGCUGAUACUCAGAAGAAAGGCUGGCCAAGGGUGUAUAUAUGCUGGUGUACUGGGGCAAACCUGGUAACACGUUUAUGUAUGCUGGCCGCUGGGUGAUGAUAUCCAACAGAGGAUUGAGCAUCA

biological target: T1, UNK ZnF1-3; test: nsRBNS (natural sequence RNA bind-n-seq); RBNS binding buffer (assumed for nsRBNS): 25 mM Tris pH 7.5, 150 mM KCl, 3 mM MgCl2, 0.01% Triton X-100, 500 ug/ml BSA, 20 U/ml SUPERase-In, 4 C; UNK is unkempt and MSI1 is Musashi-1; names of the RNAs are library labels; protein concentration not given here; high values mean tight binding

Row | Binder | binding signal [enrichment R]
1 | B1 | 0.897
2 | B2 | 1.21
3 | B3 | 0.92
4 | B4 | 0.72
5 | B5 | 0.591
6 | B6 | 1.04
7 | B7 | 0.884
8 | B8 | 1.83
9 | B9 | 0.905
10 | B10 | 0.848
11 | B11 | 0.952
12 | B12 | 0.968
13 | B13 | 0.887
14 | B14 | 1.07
